Here are results for 21 variants from the RNAGym collection of RNA variant scans (doi:10.7554/elife.90254).

First the molecules themselves.
B1: OR4K15 (parent)
chain: GUUAACGGUCAUAGGCCAUGGAAACUAGGAGCACCAUUUCGCUGCCAGUGAAGAAAUGAACAAAGAAAAUCUGGGCCAGGCAGGCAUCAAAAGAAAUAGUCUUGCGCUCAACCAGAAAGUCUGUAAUCAUUUUAAGGGUA

Read counts are not given, so values of variants with three or more changes are uncertain.

Variants of B1 are the subject of the series. In words: self-cleavage, relative activity (ratio to wild type); higher = more cleavage; in vitro, sequencing; the parent is a self-cleaving ribozyme.
In the case of GUUAACGGUCAUUGGCCAUGGAAACUAGGAGCACCAUUUCGCUGCCAGUGAAGAAAUGAACAAAGAAAAUCUGGGCCAGGCAGGCAUCAAAAGAAAUAGUCUUGCGCUCGACCAGAGAGUCUGUAAUCAUUUUAAGGGUA, the self-cleavage was found to be 0.24.

For the variant GUUAACGGUCAUUGGCCAUGGAAACUAGGAGCACCAUUUCGCUGCCAGUGAAGAAGUGAACAAAGAAAAUCUGGGCCAGACAGGCAUCAAAAGAAAUAGUCUUGCGCUCAACCAGAAAGUCUGUAAUCAUCUUAAGGGUA, the self-cleavage stood at 0.1. Regarding GUUAACGGUCAUUGGCCAUGGAAACUAGGAGCACCACUUCGCUGCCAGCGAAGAAAUGAACAAAGCAAAUCUGGGCCAGGCAGGCAUCAAAAGAAAAAGUCUUGCGCUCAACCAGAAUGUCUGAAAUCAUUUUAAGGGUA, the self-cleavage amounted to 0.41. Under GUUAACGGUCAUUGGCCAUGGAAACUAGGAGCACCAUUUCGCUGCCAGUGAAGAAAUGAGCAAAGAAAAUCUGGGCCAGGCAGGCAUCAAAAGAAAUAGUCUUGCGCUCAACCAGAAAGUCCGUAAUCAUUCUAAGGGUA stands 0.32; under GUUAACGGUCAUUGGCCAUGGAAACUAGGAGCACCAUUUCGCUGCCAGUGAAGAAAUGAACAAAGAAGAUCUGGGCCAGGCUGGCAUCAAAAGAAAUAGUCUUGCGCUCAACCAGAAAGUCUGUAAUCAUUUUAAGGGUA, 0.22. In the case of GUUAACGGUCAUUGGCCAUGGAAACUAGGAGCACCAUUUCGCUGCCAGUGAAGAAAUGAACAAAGAAAAUCUGGGCCAGGCAGGCAUCAGAAGAAAUAGUCUUGCGCUCAACCAGAAAGUCUGUAAUCACUUUAAGGGUA, the self-cleavage turned out to be 0.27. For GUUAACGGUCAUUGGCCAUGGAAACUAGGAGCACCACUUCGCUGCCAGUGAAGAAAUGAACAAAGAAAAUCUGGGCCAGGCAGGCAUCAAAAGAAAUAGUCCUGCGCUCAACCAGAAAGUCUGUAAUCAUUUUAAGGGUA the value was 1.78.

For GUUAACGGUCAUUGGCCACGGAAACUAGGAGCACCAUUUCGCUGCCAGUGAAGAAAUGAACAAAGAAAAUCUGGGCCAGGCAGGCAUCAAAAGAAAUAGUCUCGCGCUCAACCAGAAAGUCUGUAAUCAUUUUAAGGGUA, the self-cleavage is 0.98. For the variant GUUAACGGUCAUUGGCCAUGGAAACUAGGAGCACCAUUUCGCUGCCAGUGAAGAAAUGAACAAAGAAAGUCUGGGCCAGGCAGGCAUCAAAAGAAAUAGUCUUGCGCUCAACCAGGAAGUCUGUAAUCAUUUUAAGGGUA, the self-cleavage is 0.67.

For GUUAACGGUCAUUGGCCAUGGAAACUAGGAGCACCAUUUCGCUGCCAGUGAAGAAAUGAACAAAGAAAAUCUGGGCCAGGCAGGCAUCAAAAGAAAUAGUCUUGCGCUCAACCGGAAAGUCCGUAAUCAUUUUAAGGGUA, the self-cleavage came to 0.13. For GUUAACGGUCAUUGGCCAUGGAAACUAGGAGCACCAUUUCGCUGCCAGUGAAGAAAUGAACAAAGAAAAUCUGGGCCAGGCAAGCAUCAAAAGAAAUAGUCUUGCGCUCAACCAGAUAGUCUGUAAUCAUUUUAAGGGUA the value was 0.96. Under GUUAACGGUCAUUGGCCAUGGAAACUAGGAGCACCACUUCGCAGCCAGUGAAGAAAUGAGCAAAGGAAAUCUGGGCCAGGCAGGAACCAAAAGAAAUAGUCUUGCGCUCAACCAGAAAGUCUGUAAUCAUUUUAAGGGUA stands 2.04; under GUUAACGGUCAUUGGCCAUGGAAAUUAGGAGCACCAUUUCGCUGCCAGUGAAGAAAUGAACAAAGAAAAUCUGGGCCAGGCAGGCAUCAAAAGAAAUAGUCUUGCGCUCAACCAGAAAGUCUGUAAUCAUUUUAAGGGUG, 1.49. Regarding GUUAACGGUCAUUGGCCAUGGAAACUAGGAGCACCAUUUCGCUGCCAGUGAAGAAAUGAACAAAGAAAAUCUGGGCCAGGCAGGCAUCGAAGGAAAUUGUCUUGCGCUCAGCCAGAAAGUCUGUAAUCAUUUUAAGGGUA, the self-cleavage came to 0.04. In the case of GUUAACGGUCAUUGGCCAUGGAAACUAGGAGCACCACUUCGCUGCCAGUGAAGAAAUGAACAAAGAAAAUCUGGGCCGGGCAGGCAUCAAAAGAAAUAGUCUUGCGCUCAACCAGAAAGUCUGUAAUCAUUUUAAGGGUA, the self-cleavage stood at 0.21. For GUUAACGGUCAUUGGCCAUGGAAACUAGGAGCACCAUUUCGCUGCCAGUGAAGAAAUGAACAAAGGAAAUCUGGGCCAAGCAGGCAUCAAAAGAGAUAGUCUUGCGCUCAACCAGAAAGUCUGUAGUCAUUUUAAGGGUA the value was 0.03; for GUUAACGGUCAUUGGCCAUGGAAACUAGGAGCACCAUUUCGCUGCCAGUGAAUAAAUGAACAAAGAAAAUCUGGGCCAGGCAGGCAUCAAAAGAAAUAGUCUUGCACUCAACCAGAAAGUCUGUAAUCAUUUUAAGGGUA, 0.02; for GUUAACGGUCAUUGGCCAUGGAAACUAGGAGCACCAUUUCGCUGCCAGUGAAGAAGUGAACAAAGAAAAUCUGGGCCAGGCAGGCAUCAAGAGAAAUAGUCUUGCGCUCAACCAGAAAGUCUGUAAUCAUUUCAAGGGUA, 0.61. Take GUUAACGGUCAUUGGCCAUGGAAACUAGGAGCACCAUUUCGCUGCCAGUGAAGAAAUGAACAGAGAAAAUCCGGGCCAGGCAGGCAUCAAAAGAAAUAGUCAUGCGCUCAUCCAGAAAGUCUGUAAUCAUUUUAAGGGUA: the self-cleavage worked out at 0.02. Turning to GUUAACGGUCAUUGGCCAUGGAAACUAGGAGCACCAUUUCGCUGCCAGUGAAGAAAUGUACAAAGAAAAUCUGGGCCAGGCGGGCAUCAAAAGAAAUAGUCUUGCGCUCAACCAGAAAGUCUGUAAUCAUUUUAAGGGUA, the self-cleavage stood at 0.71. In the case of GUUAACGGUCAUUGGCCAUGGAAACUAGGAGCACCAUUUCGCUGCCAGUGAAGAAAUGAACAAAGAGAAUCUGGGCCAGGCCGGCAUCAAAAGAAAUAGUCUUGCGCUCAACCAGAAAGUCUGUAAUCAUUUUAAGGGUA, the self-cleavage was 0.05.
